Hit rate of the full screen: of about 310,000 compounds, about 2,200 (0.71%) showed an effect of 50% or more. Effects have a minus sign here. The list shows a part of the results.
biological target: human ether-à-go-go-related gene (hERG) potassium channel (human, UniProt Q12809); assay: primary screen, population patch clamp on CHO cells stably expressing hERG
Sequence (Q12809 whole entry, looked up): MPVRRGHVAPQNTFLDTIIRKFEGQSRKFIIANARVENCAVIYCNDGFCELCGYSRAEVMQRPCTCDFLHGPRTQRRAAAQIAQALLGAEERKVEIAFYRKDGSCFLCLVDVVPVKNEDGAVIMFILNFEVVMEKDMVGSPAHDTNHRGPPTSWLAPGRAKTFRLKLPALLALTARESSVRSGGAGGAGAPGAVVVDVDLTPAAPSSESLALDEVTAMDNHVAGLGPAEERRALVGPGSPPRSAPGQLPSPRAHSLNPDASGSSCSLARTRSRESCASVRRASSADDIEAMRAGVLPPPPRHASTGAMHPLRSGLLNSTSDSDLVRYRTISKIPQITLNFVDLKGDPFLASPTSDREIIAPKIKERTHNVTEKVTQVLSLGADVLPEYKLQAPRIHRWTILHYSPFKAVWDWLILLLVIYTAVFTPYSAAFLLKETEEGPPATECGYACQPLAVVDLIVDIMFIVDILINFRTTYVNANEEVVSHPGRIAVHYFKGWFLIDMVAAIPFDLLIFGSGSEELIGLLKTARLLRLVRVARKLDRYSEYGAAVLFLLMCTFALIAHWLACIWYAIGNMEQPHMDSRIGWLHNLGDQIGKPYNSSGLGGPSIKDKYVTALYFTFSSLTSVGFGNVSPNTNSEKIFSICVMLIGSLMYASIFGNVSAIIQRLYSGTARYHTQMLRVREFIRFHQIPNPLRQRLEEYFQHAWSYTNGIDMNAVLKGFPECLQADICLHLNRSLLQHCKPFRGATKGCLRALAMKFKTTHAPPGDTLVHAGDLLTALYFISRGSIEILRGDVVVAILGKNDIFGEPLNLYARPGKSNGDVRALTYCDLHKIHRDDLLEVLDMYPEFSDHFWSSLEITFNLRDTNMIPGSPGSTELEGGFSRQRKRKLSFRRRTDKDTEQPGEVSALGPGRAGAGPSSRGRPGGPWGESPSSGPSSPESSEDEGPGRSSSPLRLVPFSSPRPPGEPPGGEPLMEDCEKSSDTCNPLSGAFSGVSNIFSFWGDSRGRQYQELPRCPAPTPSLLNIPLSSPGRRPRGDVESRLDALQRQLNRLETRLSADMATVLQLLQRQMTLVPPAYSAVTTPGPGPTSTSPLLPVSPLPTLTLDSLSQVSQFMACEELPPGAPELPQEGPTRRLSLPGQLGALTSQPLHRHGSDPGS

Structure (SMILES)	hERG current change (%, negative = inhibition) at 1uM
O=C(CCN1CCCO1)N1CCCC(N2CCN(c3ccccc3F)CC2)C1 (stereo not drawn)	11.7%
C=CCn1c(SCc2nc3ccccc3c(=O)[nH]2)nnc1-c1cc2cc(Cl)ccc2o1	5.73%
C=CCNC(=O)c1cc(Cl)ccn1	8.34%
Cc1cc(=O)[nH]c(-c2ccccc2OC(F)(F)F)n1	12.5%
Cc1ccc(N2CC(C(=O)OCC(=O)NNC(=O)c3ccccc3)CC2=O)cc1 (stereo not drawn)	6.36%
O=c1c2cc(NC(=S)NCc3cccnc3)ccc2nc2n1CCCCC2	4.21%
COc1ccc(NC(=O)CC2Nc3ccccc3NC2=O)c([N+](=O)[O-])c1 (stereo not drawn)	0.151%
O=c1[nH]c(/C=C/c2ccc(Cl)cc2Cl)c([N+](=O)[O-])c(=O)[nH]1	13.9%
CCCCN(C(=O)CSCC(=O)Nc1cccc(C)c1)c1c(N)n(Cc2ccccc2)c(=O)[nH]c1=O	3.45%
Cn1ccc(C(=O)N/N=C/c2cccnc2)n1	19.3%
Cc1ccc(-c2nn3c(-c4ccco4)nnc3c3ccccc23)cc1S(=O)(=O)NCC1CCCO1 (stereo not drawn)	-0.48%
CCCN(CC(=O)Nc1ccccc1C)C(=O)/C=C/c1cccs1	4.09%
CCOc1ncccc1C(=O)OCC(=O)c1ccc[nH]1	9.14%
COc1ccc(NC(=S)N/N=C2/CCCc3c(C)cc(C)cc32)cc1	8.01%
CCCCOc1ccc(N(CC(=O)NC2CCCCC2)C(=O)CCC(=O)Nc2ccccn2)cc1	15.5%
COc1ccc2[nH]c3c(=O)n(N)c(=O)[nH]c3c2c1	4.36%
COCCOC(=O)c1c(C)oc2ccc(NS(=O)(=O)c3ccc(C(=O)O)cc3)cc12	13.5%
COc1cccc(OCC(O)CNC(=O)c2oc3c(C)c(C)ccc3c2C)c1 (stereo not drawn)	3.01%
Cc1cccc(N(CC(=O)N/N=C/c2ccccc2C(=O)O)S(C)(=O)=O)c1C	-5.58%

Structure (SMILES)	hERG current change (%, negative = inhibition) at 1uM
CCC(C)NC(=O)CSc1nc2ccccc2c(=O)n1CCCC(=O)NCC1CCCO1 (stereo not drawn)	7.49%
COc1ccc(N(CC(=O)Nc2cccc(C)c2C)S(=O)(=O)c2c(C)n[nH]c2C)cc1	7.73%
COC1CCN(C(=O)c2ccc3oc(Cc4ccc(Cl)cc4)nc3c2)CC1	9.79%
CCC(Sc1nc(N)c(NC(=O)c2ccc(OC)cc2)c(=O)[nH]1)C(=O)O (stereo not drawn)	2.21%
C=CCSc1nnc(NC(=O)COc2ccc3ccccc3c2)s1	13.8%
CCn1nc(C(=O)NCC(c2cccs2)N2CCOCC2)c2ccccc2c1=O (stereo not drawn)	8.33%
COc1ccc(CN2CCCC(C(=O)c3cccc(Cl)c3)C2)cc1 (stereo not drawn)	-7.39%
COc1ccc2c(Cl)c(C(=O)N/N=C/c3ccc4c(c3)OCO4)sc2c1	20.5%
Cc1cc(C)c(C#N)c(N2CCCC(C(N)=O)C2)n1 (stereo not drawn)	5.32%
Cc1ccc(NS(=O)(=O)c2ccc(CCC(=O)NCc3cccnc3)cc2)cc1	16.8%
COc1ccc(/C=C2/SC(=O)N(NS(=O)(=O)c3ccccc3)C2=S)cc1OC	7.58%
Oc1ccccc1OCC(O)c1ccccc1 (stereo not drawn)	15.1%
N#Cc1ccc(C(=O)NC23CC4CC(CC(C4)C2)C3)cc1	11.3%
COC(=O)C1=C(CSc2nncn2C)NC(=O)NC1c1ccc(F)cc1 (stereo not drawn)	10.2%
CCN(CC)CCCn1c2c(c(SCC(=O)Nc3ccc(C)c(F)c3)nc1=O)CCC2	-27.2%
CCOc1ccc(Br)cc1C(=O)N/N=C/c1cccnc1	10.8%
CN1C(=O)C(=C2CCCCCC2)SC1=S	9.27%
CCc1nc(N[C@@H](CC(C)C)C(=O)O)c2oc3ccccc3c2n1	-9.97%
Cc1nc2c(C)cccc2cc1C(=O)N/N=C/c1ccc(O)cc1	10.9%

Structure (SMILES)	hERG current change (%, negative = inhibition) at 1uM
C/C(=N\NC(=O)COc1ccc2ccccc2c1)c1cccs1	-1.43%
O=C(NCc1ccco1)c1ccc(=O)oc1	7.41%
CC(=O)N1CC(=O)Nc2ccc(Cl)cc2C1c1ccc(F)cc1 (stereo not drawn)	-5.48%
Cc1ccccc1OCC(=O)Nc1ccccc1-c1ccccc1NC(=O)COc1ccccc1C	8.66%
O=C(Nc1ccccc1Cl)C1CCN(Cc2cnn(-c3ccccc3)c2-n2cccc2)CC1	-1.54%
CC(=O)NCCN1C(=O)C2C3c4ccccc4C(c4ccccc43)C2C1=O (stereo not drawn)	10.3%
COc1ccc(C(=O)NNc2ccccc2)cc1OC	4.53%
Cc1cc(C)cc(C(=O)NCC(=O)OCC(=O)c2c(N)n(C)c(=O)n(C)c2=O)c1	39.2%
CSc1n[nH]c(/N=C/c2oc(O)c3ccccc23)n1	13.8%
COc1ccccc1C1SCCN1C(=O)c1ccc([N+](=O)[O-])cc1 (stereo not drawn)	-4.91%
CC(Oc1ccccc1)C(=O)N1CCN=C1SCc1ccc(F)cc1 (stereo not drawn)	2.43%
COc1ccc(C(=O)N2CCC(C(=O)Nc3ccccc3C)CC2)cc1OC	7.03%
O=C(CSc1nnc(Cc2ccsc2)o1)c1ccccc1	6.74%
Nc1nc2c(c3c1c(=O)oc1ccccc13)CCCCC2	13.3%
COc1cc2c(cc1OC)CN(C(=O)/C=C/c1cc(OC)c(OC)c(OC)c1)CC2	2.96%
Cn1c(CO)cnc1SCc1ccc([N+](=O)[O-])cc1	-0.423%
COc1ccc(OCC(=O)N2N=C(C)CC2(O)C(F)(F)F)cc1 (stereo not drawn)	9.14%
CCCCn1nc2cc(C(=O)NCCCCc3ccccc3)ccc2c1OCC	5.8%
COc1ccccc1-c1noc(CCCC(=O)Nc2ccc(C(N)=O)cc2)n1	15%

Source: PMC4336329 (PLoS ONE, 2015)
